Laboratory results published in PubChem BioAssay AID1259407 (Chemical Carcinogenesis Research Information System (CCRIS), 2018).
A number of entries come with more than one value. The other results are left out here. No rule for the calls is given here. An entry can have further records. Values given together differ for a reason that is not stated; dose, time, organism, isomer or construct need not be as stated for each record. Marks in square brackets tell the records apart. Letters count within one entry.

Tested on: CCRIS mutagenicity, Ames/micronucleus/aberration tests
Assay: CCRIS mutagenicity studies

Nc1ccccc1
mutagenic call (End Point: In vivo micronucleus, Test System: Bone marrow erythrocytes, Species: Mouse, Strain/Sex: CRH/Male, Route: Oral): active; positive at 1,000 mg/kg (p<0.05) and inactive; negative
mutagenic call (End Point: In vivo micronucleus, Test System: Bone marrow erythrocytes, Species: Rat, Strain/Sex: PVG/Male, Route: Oral): active; positive, p<0.01 and inactive; negative

ClC=C(Cl)Cl
mutagenic call (Test System: AMES SALMONELLA TYPHIMURIUM, Strain/Indicator: TA100, Metabolic Activation: RAT, LIVER, S-9, AROCLOR 1254, Method: VAPOR CHAMBER): inactive; negative and active; positive
mutagenic call (Test System: AMES SALMONELLA TYPHIMURIUM, Strain/Indicator: TA1535, Metabolic Activation: RAT, LIVER, S-9, AROCLOR 1254, Method: VAPOR CHAMBER): inactive; negative and active; positive

COC(=O)c1ccccc1C(=O)OC
mutagenic call (Test System: AMES SALMONELLA TYPHIMURIUM, Strain/Indicator: TA100, Metabolic Activation: NONE, Method: STANDARD PLATE): inactive; negative [study A] and active; positive [study B]
